From the supplement of paper PMC10986608
The list shows a part of the results. Most values come without repeats; read them as rough.

What follows are compounds tested on Candida albicans DPL-15 (assay: growth (OD600) after compound treatment (apparently relative to screen median) (relative growth (fraction; screen median 1.02)); DPL-15 is a caspofungin-resistant clinical isolate; higher = more fungal growth (less antifungal activity)). Settings: 25 µM; RPMI 1640; 48 h; 30 °C.

Row | SMILES | growth
1 | C#CCNC(=O)c1nnc2c3ccccc3n(COC)c2n1 | 1.06
2 | CC(=O)OC[C@H]1O[C@H](C#Cc2cccc(F)c2)C=C[C@@H]1OC(C)=O | 1.28
3 | CC(C)(C)NS(=O)(=O)OCCCB1OC(C)(C)C(C)(C)O1 | 1.02
4 | COc1ccc2c(c1)O[C@@H](c1cccc(C(F)(F)F)c1)[C@H](OC(=O)Nc1cc(OC)c(OC)c(OC)c1)C2=O | 1
5 | CS(=O)(=O)Oc1c(CC23CCCCC2=Nc2c(Cl)cccc23)occc1=O (stereo not drawn) | 1.26
6 | CN(Cc1ccccn1)CC1CCCN(CCc2ccccc2)C1 (stereo not drawn) | 0.942
7 | C=COCCN1C=C(C(=O)OCC)C(c2ccccc2)NC1=O (stereo not drawn) | 0.969
8 | COc1cc(CC=C(C)C)c2c(=O)c3ccccc3oc2c1O | 0.985
9 | COc1ccc(Cn2nc(C)cc2Nc2cc(O)cc(O)c2C(=O)N(C)Cc2ccccc2)cc1 | 0.931
10 | CC(C)(C)C[C@@H](O)COc1cc2c(cc1C1(c3cc4c(cc3OC[C@H](O)CC(C)(C)C)OCO4)C(=O)Nc3ccc(F)cc31)OCO2 | 1.13
11 | COC(=O)C1=C(C)[C@@]2(C)C[C@H]3[C@@]4(C)CC[C@H](O)C(C)(C)[C@@H]4CC[C@@]3(C)OC2=C(C)C1=O | 1.11
12 | COC(=O)C1=C(C)N(C)C(NCc2ccc(OC)cc2)=NC1c1ccc(F)cc1 (stereo not drawn) | 0.944
13 | COCn1c(-c2nc3nccnc3n2COC)nc2nccnc21 | 1.09
14 | COC(=O)[C@@H]1[C@@H](O)[C@@]2(O)c3c(OC)cc(F)cc3O[C@@]2(c2ccc(Cl)cc2)[C@H]1c1ccccc1 | 1.05
15 | CC#CCOc1c(-c2ccccc2O)oc2ccccc2c1=O | 1.14
16 | CCN1C(NCc2ccc3c(c2)OCO3)=N[C@@H](c2cccc(F)c2)C(C(=O)OC)=C1C | 1.05
17 | CC(C)(C)NS(=O)(=O)OC1[C@H]2C[C@@H]3C[C@@H](C[C@H]1C3)C2 (stereo partly drawn) | 1.08
18 | C=C(C)C[C@H](O)COc1cc2c(cc1C1(c3cc4c(cc3OC[C@@H](O)CC(=C)C)OCO4)C(=O)Nc3cc(F)ccc31)OCO2 | 1.16
19 | CC1(C)CN=C(c2ccccc2)C2=C(N1)C(=O)NC2c1ccc2c(c1)OCO2 (stereo not drawn) | 0.962
20 | COC(=O)C1=C(C)N(C)C(NCC2CC2)=NC1c1ccc(C(F)(F)F)cc1 (stereo not drawn) | 1.02
21 | OC[C@@H](Cc1ccc2c(c1)OCO2)[C@@H](CO)Cc1ccc2c(c1)OCO2 | 0.925

Row | SMILES | growth
22 | COc1ccc(-c2[nH]c3cc(F)cc(F)c3c(=O)c2O)cc1 | 0.648
23 | CN1CCN=C(c2ccccc2)C2=C1C(=O)N(c1ccccc1)C2c1ccc(Br)cc1 (stereo not drawn) | 0.887
24 | COc1ccc(N2C(=O)c3nn(C)c(-c4ccccc4)c3C2c2ccc(Br)cc2)cc1 (stereo not drawn) | 1.03
25 | Clc1cc2ccccc2c(-c2ccccc2)n1 | 0.992
26 | C=Cc1cc(O)c2c(=O)c3ccccc3oc2c1 | 1.11
27 | COc1ccc(-c2cnc3c(-c4ccccn4)cnn3c2N)cc1 | 1.02
28 | Cc1cc(C)cc(-n2nc3c(c2-c2ccccc2)C(c2ccc4c(c2)OCO4)NC3=O)c1 (stereo not drawn) | 0.899
29 | COC(=O)c1nnc(C(=O)OC)c2c1c1ccccc1n2S(=O)(=O)c1ccc(C)cc1 | 1.33
30 | COc1ccc(N2C(=O)c3[nH]nc(CC(C)C)c3C2c2cncc(OC)c2)cc1 (stereo not drawn) | 1.55
31 | COC[C@H](O)/C=C/[C@]1(C)CCCC[C@H]1NC(=O)OC | 1.11
32 | C=CCC12OC1C1(OCCCO1)C(CO[Si](c1ccccc1)(c1ccccc1)C(C)(C)C)=C(Br)C2=O (stereo not drawn) | 1.19
33 | COC(=O)C1=C(C)NC(=O)NC1c1ccc(OC)cc1 (stereo not drawn) | 0.99
34 | C=CCN1C(=O)C2=C(C(CC(C)C)=NCC(C)(C)N2)C1c1ccccc1 (stereo not drawn) | 1.06
35 | CCOC(=O)c1cc2nc(SC)[nH]c(=O)c2c(C(=O)OCC)n1 | 1.25
36 | COc1cc(O)c2c(=O)c3c(CC=C(C)C)ccc(O)c3oc2c1 | 0.943
37 | O=c1cccc(CCCc2ccccc2)[nH]1 | 0.996
38 | COC(=O)[C@]12Oc3ccc(I)c(O)c3C(=O)C1=C(OC)CC[C@@H]2O | 1.11
39 | COC(=O)[C@@H]1[C@@H](c2ccccc2)[C@]2(c3ccc(OC)cc3)Oc3cc(OC)cc(OC)c3[C@@]23NC(c2ccc(N(C)C)cc2)=N[C@@]13O | 1.09
40 | COC(=O)[C@@]12Oc3ccc(-c4cccc(C(=O)N(C)OC)c4)c(O)c3C(=O)C1=C(N)C[C@H](C)[C@H]2O | 1.12
41 | CC(C)CC1=NCCNC2=C1C(c1ccc(F)cc1)N(Cc1ccccc1)C2=O (stereo not drawn) | 0.956
42 | C[C@@]12C(=O)[C@]3(C)C=C[C@@]1(C)OC[C@]21C=C[C@H]3O1 | 0.979

Row | SMILES | growth
43 | COC[C@@H](O)[C@H]1OCc2oc3ccccc3c2[C@@H]1/C=C/c1ccccc1 | 0.832
44 | COc1cccc(N2C(=O)c3[nH]nc(CC(C)C)c3C2c2ccsc2)c1 (stereo not drawn) | 1.09
45 | COC(=O)[C@H]1C(=O)[C@@]2(Nc3ccccc3)c3c(OC)cc(OC)cc3O[C@@]2(c2ccc(OC)cc2)[C@@H]1c1ccccc1 | 0.985
46 | Cc1ccc2[nH]c3nc4cccnc4cc3c2c1 | 0.76
47 | COc1ccc(N2C(=O)c3[nH]nc(CC(C)C)c3C2c2ccc(F)cc2)cc1 (stereo not drawn) | 0.896
48 | C/C=C/C=C/C(=O)c1cc(C)c(OCC(=O)O)c(C)c1O | 1.47
49 | CC#CCN1C(=O)NC(c2ccccc2)C(CO)=C1C (stereo not drawn) | 1.13
50 | CC(=O)C1=C(C)N(Cc2ccc(Cl)cc2)C(=S)NC1c1ccc(Cl)cc1 (stereo not drawn) | 0.923
51 | CC(=O)C1=C(C)N(Cc2cccc(Cl)c2)C(=S)NC1c1cccc(Br)c1 (stereo not drawn) | 1.47
52 | CC(C)(O)Cn1nc2cc1-c1cccc(c1)C(=O)NCC1(CCCCC1)CC(=O)N[C@@H](c1ccccc1)COC2 | 0.94
53 | CCN1C(=O)NC(c2ccccc2)C(C(=O)OC)=C1C (stereo not drawn) | 1.37
54 | COC(=O)CC/C=C/[C@]12Oc3cc(OC)c4c(C)cc(O)c5c4c3[C@@H](OC5=O)[C@H]1C[C@@H](C)O2 | 1.08
55 | COc1cc2c(c(OC)c1OC)[C@@]1(c3ccccc3)CCCC[C@H]1C2NC(=O)C(F)(F)F (stereo partly drawn) | 0.806
56 | COC(=O)C1=C(C)N(C)C(NCCCOC(C)C)=NC1c1ccc(Cl)cc1 (stereo not drawn) | 0.999
57 | C#CCC(C)(C)CNC(=O)CC1(CNC(=O)c2cccc3cnnn23)CCCCC1 | 1.07
58 | CC1=C[C@@]2(CCCO)c3cc4c(cc3CC[C@@]2(C)[C@@H]1C)[nH]c1ccccc14 | 1.02
59 | CC(C)Cc1n[nH]c2c1C(c1ccccc1Br)N(c1ccc3c(c1)OCO3)C2=O (stereo not drawn) | 1.06
60 | COc1ccc(OC[C@@H]2C=C(C)C[C@]3(O2)C(=O)N(Cc2ccccc2)c2ccccc23)cc1 | 0.868
61 | COC(=O)[C@]1([C@@H]2OC(=O)C[C@@H]2C)CC(=O)c2c(O)cccc2O1 | 1.08
62 | CO[C@@H]1[C@H](O)CC[C@]2(O)CN(Cc3ccc4c(c3)OCO4)[C@](C)([C@H](O)CC=C(C)C)[C@@H]12 | 1.13
63 | CC(=O)C1=C(C)N(Cc2ccc(F)cc2)C(=S)NC1c1ccc(Br)cc1 (stereo not drawn) | 0.955

Row | SMILES | growth
64 | CCOC(=O)/C=C/NC(=O)c1ccccc1 | 0.836
65 | COC(=O)c1cc2c(c3c4cc(OC)ccc4n(S(=O)(=O)c4cccc(C)c4)c13)C(=O)N(Cc1ccc(C)cc1)C2 | 1.01
66 | COc1ccc(N2C(=O)C3=C(C(C(C)C)=NCCN3)C2c2cccc(C(F)(F)F)c2)cc1 (stereo not drawn) | 1.02
67 | FC(F)(F)c1cc(C(F)(F)F)c2c3c([nH]c2c1)CCCC3 | 1.08
68 | COc1ccc(N2C(=O)C3=C(C(CC(C)C)=NCCN3)C2c2ccc(Br)cc2)cc1 (stereo not drawn) | 0.959
69 | COc1cccc2c(=O)c3cccc(C(=O)Nc4ccc(CC(=O)N5Cc6ccccc6C5)cc4)c3[nH]c12 | 1.25
70 | C/C=C/[C@H]1CC(=O)c2c(O)c(C)c(O)c(C)c2[C@]12C(=O)C=C(C)OC2=O | 0.907
71 | COc1ccc2c(c1)C(=O)[C@@H](CCCO)[C@@H]2c1ccccc1 | 0.741
72 | CS(=O)(=O)Oc1c(CC23CCCCC2=Nc2ccc(Cl)cc23)occc1=O (stereo not drawn) | 1.2
73 | C[C@H]1C=CCCO[C@@H]1c1ccc(-n2ccnc2)cc1 | 0.745
74 | O=C1OC[C@H](Cc2ccc3c(c2)OCO3)[C@H]1Cc1ccc2c(c1)OCO2 | 0.979
75 | COc1cc(CC=C(C)C)c2c(=O)c3ccccc3[nH]c2c1O | 0.782
76 | O=C1CCCC=C1[C@@H](O)CCOC(c1ccccc1)(c1ccccc1)c1ccccc1 | 0.972
77 | CC(C)Cc1n[nH]c2c1C(c1cccc(C(F)(F)F)c1)N(c1ccc(N(C)C)cc1)C2=O (stereo not drawn) | 1.12
78 | CC(=O)C1=C(C)N(Cc2ccccc2)C(=O)N[C@H]1c1ccc(Br)cc1 | 0.854
79 | CCCCCOS(=O)(=O)Nc1ccc(C(F)(F)F)cc1 | 1.11
80 | CN1CCN=C(c2ccccc2)C2=C1C(=O)NC2c1cccc(C(F)(F)F)c1 (stereo not drawn) | 0.897
81 | CC(C)[C@]12OC3=C(C(=O)C(C)(C)C(=O)C3(C)C)[C@H]1CC1(CCCCC1)O2 | 1
82 | COc1ccc(N2C(=O)C3=C(C(CC(C)C)=NCCN3)C2c2ccc(F)cc2)cc1 (stereo not drawn) | 0.991
83 | COc1ccc(Cn2ncc(C(C)C)c2N)cc1 | 1.08
